Read counts are not given, so values of variants with three or more changes are uncertain.
B1: LINE1-full (parent)
chain: UACGUAGGUGGUUUUCCCCUGAUAGUGCUAAGGGGGCCUGGAAGUUUGGACUGGGCAGAGCUCAACACAGCGUGGCAAAGUGGCUGUGGCUAGACUGCCUCUCUGGAUUCCUCGUCACUCAGCAGGGCAUCUCUGAGAGAAAUGCC

Variants of: B1
Assay: self-cleavage, relative activity (ratio to wild type); higher = more cleavage; in vitro, sequencing; the parent is a self-cleaving ribozyme

Row | Variant | self-cleavage
1 | UACGUAGGUGGUUUUCCCCUGAUAGUGCUAUGGAUGCCUGGAAGUUUGGACUUGGCAGAGCUCAACACAGCGUGGCAAAGUGGCUGUGGCUAGACUGCCUCUCUGGAUUCCUCGUCACUCAGCAGGGCAUCUCUGAGGGAAAUGCC [A31U G34A G35U G53U A138G] | 2.3
2 | UACGUAGGCGGUUUUCCCCUGAUAGUGCUAAGGGGGCCUGGAAGUUUGGACUGGGCAGGGCUCAACACAGCGUGGCAAAGUGGCUGCGGCUAGACUGCCUCUCUGGAUUCCUCGUCACUCAGCAGGGCAUCUCUGAGAGAAAUGCC [U9C A59G U87C] | 0
3 | UACGUAGGUGGUUUUCCCCUGAUAGUGCUAAGGGGGCCUGGGAGUUUGGACUGGGCAGAGCUCAACACAGCGUGGCAAAGUGGCUGUGGCCAGACUGCCUCUCUGGAUUCCUCGUCACUCAGCAGGGCAUCUCUGAGGGAAACGCC [A42G U91C A138G U143C] | 0.92
4 | UACGUAGGUGGCUUUCCCCUGAUAGUGCUAAGGGGACCAGGAAGUUUGGACUGGGCAGAGCUCAGCCCAACGUGGCAAAGUGGCUGUGGCUAGACUGCCUCUCUGGAUUCCUCGUCACUCAGCAGGGCAUCUCUGAGAGAAAUGCC [U12C G36A U39A A65G A67C G70A] | 0.06
5 | UACGUAGGUGGUUUUCCCCUGAUAGUGCUAAGGGGGCCUGGAAGUUUGGACUGGGCAGAGCUCAACGCAGCGUGGCAAAGUGGCUGUGGCUAGACUGCCUCUCUGGAUUCCUCGUCACUCAGCAGGGCAUCUCUGAGGGAAGUGCC [A67G A138G A142G] | 0.63
6 | UACGUAGGUGGUUUUCCCCUGAUAGUGCUAAGGGGGCCUGGAAGUUUGGACUGGGCAGAGCUCAACACAGCGUGGCAAAGUGGCUGUGGCUAGACUGCCUCUCUGGACUCCUCGUCACUCAGCAGGGCAUCUCCGAGGGAAAUGCC [U108C U134C A138G] | 1.67
7 | UACGUAGGUGGUAUUCCCCUGAUAGUGCUAAGGGGGCCUGGAAGUUUGGACUGGGCCGAGCUCAACACAGCGAGGCAAAGUGGCUUUGGCUAGACUGCCUCUCUGGAUUCCUCGUCACUCAGCAGGUCAUCUCUGGGGGAAAUGCC [U13A A57C U73A G86U G127U A136G A138G] | 0.01
8 | UACGUAGGUGGUUUUCCCCUGAUAGUGCUAAGGGGGCCUGGAAGUUUGGACUGGGCAGAGCACAACACAGCGUGGCAAAGUGGCUGUGGCUAGACUUCCUCUCUGGACUCCUCGUCACUCAGCAGGGCAUCUCUGAGAGAAAUGCC [U62A G97U U108C] | 0.02
9 | UACGUAGGUGGUUUUCCCCUGAUAGUGCUAAGGGGGCCUGGAAGCUCGGACUGGGCAGAGCUCAACACUGCGUGGCAAAGUGGCUGUGGCUAGCCUGCCUCUCUGGAUUCCUCGUCACUCAGCAGGGCAUCUCUGAGAGAAAUGCC [U45C U47C A69U A94C] | 0
10 | UACGUAGGUGGUUUUCCCCUGAUAGUGCUAAGGGGGCCUGGAAGUUUGGACUGGGCAGAGCUCAACACAUCGCGGCAAAGUGGCUGUGGCUAGACUGCCUCCCUGGAUUCCUCGUCACUCAGCAGGGCGUCUCUGAGAGAAAUGCC [G70U U73C U102C A129G] | 0
11 | UACGUAGGUGGUUCUCCCCUGAUAGUGCUAAGGGGGCCUGGAAGUUUGGCCUGGGCAGAGCUCAACACAGCGUGGCAAAGUGGCUGUGGCUAGACUGCCUCCCUGGAUUCCUCGUCACUCUGCAGGGCAUCUCUGAGAGAAAUGCC [U14C A50C U102C A121U] | 2.3
12 | UACGUAGGUGGUCUUCCCCUGAUAGUGCUAAGGGGGCCUGGAAGUUUGGACUGGGCAGAGCUCAACACAGCGUGGCAAAGAGGCUGUGGCUAGACUGCCCCUCUGGAUUCCUCGUCACUCAGCAGGGCAUCUCUGAGAGAAAUGCC [U13C U81A U100C] | 2.01
13 | UACGUAGGUGGUCUUCCCCUGAUAGUGCUAAGGGGGCCUGGAAGUUUGGGCUGGGCAGAGCUCAACACAGCGUGGCAAAGUGGCUGUGGCUAGACUGCCUCUCUGGAUUCCUCGUCACCCAGCAGGGCGUCUCUGAGAGAAAUGCC [U13C A50G U119C A129G] | 1.72
14 | UACGUAGGUGGUUUUCCCCUGAUAGGGCUAAGGGGGCCUGGAAGUUUGGACUGGGCAGAGCUCAACACAGCGUGGCAAAGAGGCUGUGGCUAGACUGCCACUCUGGAUUCCUCGUCACUCAGCAGGGCAUCUCUGAGAGAAAUGCC [U26G U81A U100A] | 2.09
15 | UACGUAGGUGGUUUUCCCCUGAUAGUGCUAAGGGGGCCCGGAAGUUUGGACUGGGCAGAGCUCAACACAGCGUGGCAAAGUGGCUGUGGCUAGACUGCCUCUCUGGAUUCCUCGUCACUCAGCAGGGCAUCUCUGUGAGAAACGCC [U39C A136U U143C] | 0.48
16 | UACGUAGGUGGUUUUCCCCUGAUAGUGCUAAGGGGGCCUGGAAGUUUGGACUGGGCAAUGCUCAGCACAGCGUGGCAAAGUGGCUGUGGCUAGACUGCCUCUCUGGAUUCCUCGUCACUCAGCAGGGCAUCUCUGAGAGAAAUGCC [G58A A59U A65G] | 0.04
17 | UACGUAGGUGGUUUUCCCCUGAUAGUGCUAAGGGGGCCCGGAAGUUUGGACUGGGCAGAGCUCAACACAGCGUGGCAAAGUGGCUGUGGCUAGACAGCCUCUAUGGAUUCCUCGUCACUCAGCAGGGCAUCUCUGAGAGAAAUGCC [U39C U96A C103A] | 0.05
18 | UACGUAGGUGGUUUUCCCCUGAUAGUGCUAAGGGGGCCUGGAAGUUUGGACUGGGCAGAGCUCAACACGGCGUGGCAAAGUGGCUGUGGCUAGACUGCCUCUCUGAAUUCCUCGUCUCUCAGCAGGGCAUCUCUGAGAGAAAUGCC [A69G G106A A117U] | 0.39
19 | UACGUAGGUGGUUUUCCCCUGAUAGUGCUAAGGGGGCCUGGAAGUUUGGACUGGGCAGGGCUCAACACAGCGUGGUAAAGUGGCAGUGGCUAGACUACCUCUCUGGAUUCCUCGUUACUCAGCAGGGCAUCUCUGAGAGAGAUGCC [A59G C76U U85A G97A C116U A141G] | 0.01
20 | CACGUAGGUGGUUUUUCCCUGAUAGUGCUAAGGGGGCCUGGAAGUUUGGACUGGGCAGAGCUCAACACAGCGUGGCAAAGUGGCUGUGGCUAGACUGCCUCUCUGGAUGCCUCGUCACUCAGCAGGGCAUCUCUGAGAGAGAUGCC [U1C C16U U109G A141G] | 0.59

Row | Variant | self-cleavage
21 | UUCGUAGGUGGUUUUCCCCUGAUAGUGCUAAGGGGGCCUGGAAGUUUGGACUGGGCAGAGCUCAACACAGCGUGGCAAAGUGGCUAUGGCUAGACUGCCUCUCUGGAUUCCUCGUCACUCGGCAGGGCAUCUCUGAGAGAAAUGCC [A2U G86A A121G] | 0.12
22 | UACGUAGGUGGUUUUUCCCUGCUAGUGCUAAGGGGGCCUGGAAGUUUGGACAGGGCAGAGCUCAACACAGCGUGGCAAAGUGGCUGUGGCUAGACUGCCUCUCUGGAUUCCUCGUCACUCAGCAGGGCAUCUCUGAGAGAAAUGCC [C16U A22C U52A] | 1.87
23 | UACGUAGGUGGUUUUCCCCUGAUAGUGCUAAGGGGGCCUGGAAGUUUGGACUGGGCAGAGCUCGACACAGUGUGCCAAAGUGGCUGUGGCUAGACUGCCUCUCUGGAUUCCUCGUCACUCAGGAGGGCAUCUCUGAGAGAAAUGCC [A64G C71U G75C C123G] | 0.03
24 | UACGUAGGUGGUUUUCCCCUGAUAGUGCUAAGGGGGCCUGGAAGCUUGCACUGGGCAGAGCUCAACACAGCGUGGCGAUGUGGCAGUGGCUAGACUGCCUCUCUGGAUUCCUCGUCACUCGGCAGGGCAUCUCUGAGAGAAAUGCC [U45C G49C A77G A79U U85A A121G] | 0
25 | UGCGUAGGUGGUUUUCCUCUGAUAGUGCUAAGGGGGCCUGGAGGUUUGGACUGGGCAGGGCUCAACACAGCGUGGCAAAGUGGCUGCGGCUAGACUGCCUCUCUGGAUUCCUCGUCACUCUGCAGGGCAUCUCUGAGAGAGAUGCC [A2G C18U A43G A59G U87C A121U A141G] | 0
26 | UACGUAGGUGGUUUUCCCCUGAUAGUGCUAAGGGGGCCUGGAAGUUUGGACUGGGCAGAGCUCGACACAGCGUGGCAAAGUGGCUGUGGCUAGACAGCCUCUCUGGAUUCCUCGUCACUCUGCAGGGCAUCUCUGAGAGAAAUGCC [A64G U96A A121U] | 0.06
27 | UACGUAGGUGGUUUUCCCCUGAUAGUGCUGAGGGGGCCUGGAAGUUUGGACUGGGCAGAGCUCGACACAGCGUGGCAAAGUGGCUGUGGCUAGACUGCCUCUCUGGAUUCCUCGUCACUCAGCAGGGCAUCUCUGAGAGGAAUGCC [A30G A64G A140G] | 0.25
28 | UACGUAGGGGGUUUUCCCCUGAUAGUGCUAAGGGGGCCUGGAAGUUUGGACUGGGCAGAGCUCAACACAGCGUGGCAAAGUGGCCGUGGCUAGACUGCCUCUCUGGAUUCCUCGUCACUCAGCAGGGCACCUCUGAGAGAAAUGCC [U9G U85C U130C] | 0.17
29 | UACGUAGGUGGUUUUCCCCUGAUAGUGCUAAGGGGGCCUGGAAGUUUGGACUGGGCAGAGCUCUACACAGCGUGGCGAAGUGGCUGUGGCUAGACUGCCUCUCUGGAUUCCUCGUCACUCAGCAGGGCGUCUCUGAGAGAAAUGCC [A64U A77G A129G] | 1.1
30 | UACGUAGGUGGUUUUCCCCUGAUAGUGCUAAGGGGGCCUGGAAGUUUGGACUGGGCAGAGCCCAACACAGCGUGGCAAAGUGGCCGUGGCUAGACUGCCUCUCUGGACUCCUCGUCACUCAGCAGGGCAUCUCUGAGAGAAAUGCC [U62C U85C U108C] | 0
31 | UACGUAGGUGGUUUUCCCCUGAUAGUGCUAAGGGGGCCUGGAAGCUUGGACUGGGCAGGGCUCAACACAGCGUAGCAAAGUGGCUGUGGCUAGACUGCCUCUCUGGAUUCCUCGUCACUCAGCAGGGCAUCUCUGAGAGAAAUGCC [U45C A59G G74A] | 0.13
32 | UACGUAGGUGGUUUUCCCCUGAUAGUGCUAAGAGGGCCUGGAAGUUUGGACUGGGCGGAGCUCAACACAGCGUGGCAAAGUGGCUGUGGCUAUACUGCCUCUCUGGAUUCCUCGUCACUCAGCUGGGCAUCUCUGAGAGAAAUGCC [G33A A57G G93U A124U] | 0.06
33 | UACGUAGGUGGUUUGCCCCUGAUAGUGCUAAGGGAGCCUGGAAGUUUGGACUGGGCAGAGCUCAACGCAGCGUGGCAAAGUGGCUGAGGCUAGACUGCCUCUCUGGAUUCCUCGUCACUCAGCAGGGCAUCUCUGAGAGAAAUGCC [U15G G35A A67G U87A] | 0.14
34 | UACGUAGGUGGUUUGCCCCUGAUAGUGCUAAGGGGGCCUGGAAGUUUGGACUGGGCAGAGCUCAACACAGCGUGGCAAAGUGGCUGUGGCUUGACUGCCUCUCUGGAUUCCUCGUCACUCAGCAGGGCAUCUCUGGGAGAGAUGCC [U15G A92U A136G A141G] | 0.97
35 | UACGUAGGUGGUUUUCCCCUGAUAGUGCUAUGGGGGCCUGGAAGUUUGGACUGGGCAGAGCUCAACACAGCGUGGCAAAGUGGCUGUGGCUAGACUGCCUCUCUGGAUUCCUCGACACUCAGCAGGGCAUCUCUGAGGGAAAUGCC [A31U U115A A138G] | 0.88
36 | UACGUAGGUGGUUUUCCCUUGAUGGUGCUAAGGGGGCCUGGAAGUUUGGACUGGGCAGAGCUCAACACAGCGUGGCAAAGUGGCUGUGGCUAGACUGCCUCUCUGGAUUCCGCGUCACUCAGCAGGGCAUCUCUGAGAGAAAUGCC [C19U A24G U112G] | 0.8
37 | UACGUAGGUGGUUUUCCCCUGAUAGUGCUAAGGGGGCCUGGAGGUCUGGACUGGGCAGAGCUCAACACAGCGCGGCAAAGUGGCUGUGGCUAGACUGCCUCUCUGGAAUCCUCGUCACUCAGCAGGGCAUCUCUGAGAGAAAUGCC [A43G U46C U73C U108A] | 0.48
38 | UACGUGGGUGGUUUUCCCCUGAUAGUGCUAAGGGGGCCUGGAAGUUUGGACUGGGCAGAGCUCAACACAGCGUGGCAAAGUGGCCGUGGCUAGACUGCCUCUCCGGAUUCCUCGUCUCUCAGCAGGGCAUCUCUGAGAGAAAUGCC [A6G U85C U104C A117U] | 0.16
39 | UACGUAAGUGGUUUUCCCCUAAUAGUGCUAAGGGGGCCUGGAAGUUUGGACUGGGCAGAGCUCAACACAGCGUGGCAAGGUGGCUGCGGCUAGACAGCCUCUCUGGAUUCCUCGUCACUCAGCAGGGCAUCACUGAGAGAAAUGCC [G7A G21A A79G U87C U96A U132A] | 0.16
